# Tests used:
# [1] = Size-exclusion chromatography on Superdex Peptide 10/300GL column; format: physicochemical; details: peptide dissolved in PBS
# Protocol: Approximately 200 μg of each peptide X (40 amino acids), X-1 (28 amino acids), peptide A (161 amino acids), P11 (11 amino acids), P16 (16 amino acids), P21 (21 amino acids, P16-2 (16 amino acids, scrambled sequence control), X-3 (16 amino acids) and X-4 (11 amino acids) were dissolved in phosphate-buffered saline (PBS) and loaded onto a Superdex Peptide 10/300GL column. The column was eluted with PBS at a flow rate of 0.6 mL/min and eluents were analyzed for peptide content by measuring relative absorbance at a wavelength of 215 nm. (FIGS. 3A and 3B) The data is plotted with relative absorbance (Y-axis) against elution volume (X-axis). […]
# FIG. 4 illustrates the standard curve used for size-exclusion chromatography of standard peptides using the Superdex Peptide 10/300 GL column (results provided in FIG. 3). […] The resulting chromatogram (absorbance at 215 nm (in mAU, left Y axis) and conductivity (in mS/cm, right Y axis, in function of volume of elution (in mL)) indicates the elution profiles of the above peptides with high MW peptides eluting in earlier fractions and lower MW peptides eluting in later fractions as expected. The molecular weights of peptides were plotted against elution volume generating a standard curve (not shown). […]
# [2] = tested on: TGF-β-induced migration of squamous cell carcinoma (A431) cells; test: Scratch (wound closure) migration assay, A431 cells; format: cell-based; details: 10 nM peptide, 100 pM TGF-b1, 24 hrs (FIG. 42)
# Protocol: FIG. 10A and FIG. 10B illustrate that peptides B, E and X-1 inhibit TGF-β-induced cellular migration of A431 cells in vitro. Results are shown prior to treatment (0 hr, top panels) and after treatment (24 hr, bottom panels) for each of the peptides used. (See FIG. 2 and Table 1 for the amino acid sequence identity of the peptides).
# A431 cells were grown to 80-90% confluence and serum-starved overnight. The next day, cells were scratched with a plastic pipette tip (time 0 hour) and then left untreated or treated for 24 hours with 100 pM TGF-β1 alone or in the presence of P16 as indicated. (FIG. 27A) Digital images were captured at 0 h and 24 h using an EVOS XL Core microscope. (FIG. 27B) Micrographs were subsequently quantitated to determine the percentage of the wound area that had closed following 24 hours in the presence or absence of P16, as indicated.
# Cells were scratched with a pipette tip and treated without or with 100 pM TGF-b1 alone or in the presence of 10 nM Peptide A or Peptide A1 (C31S mutant). Pictures were taken at 0 and 24 hrs. Peptide A but not Peptide A1 inhibits TGF-b-induced migration in A431 cells. Peptide A contains monomeric and dimeric forms whereas Peptide A1 contains a C31S mutation to prevent intermolecular disulfide bond formation so that it forms monomers only. […]
# [3] = tested on: TGF-β-induced epithelial-mesenchymal transition (EMT) response in squamous cell carcinoma (A431) cells; test: Immunoblot of EMT markers in A431 cells; format: cell-based; details: 10 nM peptide, 100 pM TGF-b, 24 hrs (FIG. 33)
# Protocol: (FIG. 26A) Immunoblot analysis was carried out using cell lysates of A431 cells following incubation with TGF-β, P16, or scrambled control (P16.2) as indicated to determine expression of proteins involved in the EMT response. (FIG. 26B) Densitometry analysis was subsequently performed using the developed immunoblot to illustrate the relative expression of each protein as a function as P16 concentration as indicated.
# A431 cancer cells treated with 10 nM of P16.2 (negative peptide control), P12, P16 or PA in the absence or presence of 100 pM TGF-b, followed by 24 hrs of incubation. Cells lysates were analyzed by Western blot for the expression of Fibronectin (mesenchymal marker), Snail and Twist (EMT markers). Actin expression was used as loading control.
# [4] = tested on: TGF-b-induced phosphorylation of Smad2 in squamous cell carcinoma (A431) cells; test: Western blot for phospho-Smad2 in A431 cells; format: cell-based; details: 10 nM peptide, 100 pM TGF-b, 45 min at 4 C (FIG. 32)
# Protocol: A431 cancer cells treated with 10 nM of P16.2 (negative peptide control), P16 or PA in the absence or presence of 100 pM TGF-b, followed by 45 min of incubation at 4 C. Cells lysates were analyzed by Western blot using an anti-phosphoSmad2 antibody. Actin expression was used as loading control.
# [5] = tested on: TGF-b induced cellular invasion of squamous cell carcinoma (A431) cells; test: Matrigel invasion assay, A431 cells; format: cell-based; details: 10 nM peptide, 100 pM TGF-b, 24 hrs (FIG. 38)
# Protocol: A431 cancer cells (8000 cells) were seeded on a BioCoat™ Matrigel® Invasion Chamber and treated with 10 nM of P16.2 (negative peptide control), P16 or PA in the absence or presence of 100 pM TGF-b, followed by 24 hrs of incubation. Invasive cells (in the lower chambers) were stained by crystal violet dye, photographed and counted. Representative photos (A) and statistical plots of invasion (B) are shown. The data are shown as mean±SD of the number of invasive cells for three independent experiments. **P<0.01 and ***P<0.001 as compared with controls. […] Squamous cell carcinoma (epidermoid A431 and head and neck FaDu) cells were stimulated with 100 pM of TGF-b1, then treated with 10 nM of peptide 16.2, P16, PA or CD109 for 24 hours. Cells were analysed by Flow cytometry and CD133 positive cell population, which represent cancer stem cell population, were quantified.
# [6] = tested on: TGF-β1-induced Smad3-driven (CAGA12-lux) transcriptional activity; test: Luciferase reporter assay in HEK293-(CAGA)12 cells; format: cell-based; details: 10 nM or 5 nM peptide, 100 pM TGF-β1, 18 hours (FIG. 5)
molecule,measurement,setting,value
"Peptide A: 161 amino acid CD109-based peptide, SEQ ID NO: 3, bacterially expressed; contains monomeric and dimeric forms; described in U.S. Pat. No. 7,173,002 (protein) TMENVVHELELYNTGYYLGMFMNSFAVFQECGLWVLTDANLTKDYIDGVYDNAEYAERFMEENEGHIVDIHDFSLGSSPHVRKHFPETWIWLDTNMGSRIYQEFEVTVPDSITSWVATGFVISEDLGLGLTTTPVELQAFQPFFIFLNLPYSVIRGEEFAL",Aggregation?,[1],Not aggregated
same,inhibition of TGF-b1 induced migration in A431 cells,[2],inhibits
same,"inhibition of TGF-b induced EMT response (Fibronectin, Snail, Twist)",[3],inhibit
same,inhibition of TGF-b-induced phosphorylation of Smad2,[4],inhibit
same,inhibition of TGF-b induced cellular invasion,[5],significantly inhibit
same,inhibition of TGF-β1-induced CAGA12-lux activity,[6],inhibited
